Laboratory results reported in the supplement of paper PMC3334620.
The full ranking holds about 33,000 sequences; the median of “E-score (-0.5 to 0.5)” is about -0.043, and the highest 2% start at about 0.37. The list shows a part of the results.

Each sequence was assayed against T1, Upc2 (UniProt Q12151) (assay: PBM E-score (8-mer binding enrichment) (E-score (-0.5 to 0.5)); higher = stronger / more preferred TF binding; most listed sequences are background and not binding sites). Details: protein concentration: 200 nM; construct: GST-full length.
T1 sequence: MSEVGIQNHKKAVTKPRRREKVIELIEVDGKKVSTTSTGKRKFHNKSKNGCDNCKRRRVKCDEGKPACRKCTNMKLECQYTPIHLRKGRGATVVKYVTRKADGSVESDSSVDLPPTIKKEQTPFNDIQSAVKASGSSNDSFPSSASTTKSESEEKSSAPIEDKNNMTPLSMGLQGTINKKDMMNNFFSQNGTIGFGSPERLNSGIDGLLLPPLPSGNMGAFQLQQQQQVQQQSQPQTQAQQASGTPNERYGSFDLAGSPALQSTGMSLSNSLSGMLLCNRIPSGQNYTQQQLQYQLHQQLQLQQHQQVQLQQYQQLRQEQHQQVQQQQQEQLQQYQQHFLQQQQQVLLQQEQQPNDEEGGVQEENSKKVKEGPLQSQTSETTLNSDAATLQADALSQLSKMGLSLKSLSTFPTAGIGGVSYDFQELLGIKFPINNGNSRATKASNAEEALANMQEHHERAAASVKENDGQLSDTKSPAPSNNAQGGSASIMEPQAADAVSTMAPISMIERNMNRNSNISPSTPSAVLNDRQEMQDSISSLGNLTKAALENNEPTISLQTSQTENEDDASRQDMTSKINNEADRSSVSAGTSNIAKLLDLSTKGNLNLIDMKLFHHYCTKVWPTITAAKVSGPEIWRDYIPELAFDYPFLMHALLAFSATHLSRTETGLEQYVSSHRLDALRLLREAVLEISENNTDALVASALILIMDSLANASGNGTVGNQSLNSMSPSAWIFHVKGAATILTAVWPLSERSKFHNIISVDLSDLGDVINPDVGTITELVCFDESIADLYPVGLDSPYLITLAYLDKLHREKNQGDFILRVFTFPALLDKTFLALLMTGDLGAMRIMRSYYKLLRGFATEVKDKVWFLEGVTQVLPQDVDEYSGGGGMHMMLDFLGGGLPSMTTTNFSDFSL
How it was run: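 GST-tagged yeast TFs (full-length or DNA-binding domain) were made by PURExpress in vitro transcription/translation and applied at about 100-200 nM to universal all-10-mer Agilent arrays. The arrays were made double-stranded by primer extension, on fresh or once-stripped slides. Bound protein was detected with fluorescent anti-GST, and scans were normalised with masliner. Each ungapped eight-base word, pooled with its reverse complement, received an E-score (modified Wilcoxon-Mann-Whitney statistic) from the Universal PBM Analysis Suite.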

| Sequence | PBM E-score |
| --- | --- |
| GTTGAGCA | -0.0532 |
| GAAAGGAC | 0.0926 |
| CGAAGCGC | 0.0394 |
| TACTCTCA | -0.0653 |
| CCGAGCCC | -0.0448 |
| CGCCGGTC | -0.00408 |
| ATAGTTAA | 0.0708 |
| AGCTACCG | -0.269 |
| AGTGTACG | 0.417 |
| ATCCAATA | -0.114 |
| TAAGCGGA | 0.157 |
| CGTTAGCC | -0.0748 |
| CAGAACTA | -0.109 |
| CCCAACCC | -0.082 |
| ACGCCACT | -0.0432 |
| GATAATTA | 0.00873 |
| CACTGACG | -0.152 |
| CGCTCAAA | 0.0912 |
| CCGTTCTC | -0.0145 |
| AAATAGGA | -0.12 |
| AGAGGGTA | -0.102 |
| AACTGCTG | -0.235 |
| CGCAGCCG | -0.133 |
| CAGTTTGA | -0.0353 |
| GCCGCTCC | -0.0957 |

| Sequence | PBM E-score |
| --- | --- |
| ACACCTGT | -0.0936 |
| CGCTGCAA | 0.0554 |
| AAGGCGCT | -0.119 |
| GTCACAAA | 0.106 |
| AATTCTCT | -0.018 |
| CCCCGGAG | -0.119 |
| GTCTGCCA | 0.0242 |
| ACGAAACA | 0.339 |
| ACTGGCCA | -0.215 |
| GTCTCCGA | -0.143 |
| AAATTAAA | 0.00919 |
| AATCTGCC | -0.133 |
| GCATCAGA | -0.062 |
| GTACCCTA | 0.109 |
| AACGTCTT | 0.131 |
| CGCTGACG | -0.0837 |
| TATGTGCA | -0.0906 |
| TATAAACA | 0.0845 |
| AGACGCAC | 0.0365 |
| CCTCGCCA | -0.158 |
| GGCGGCTA | -0.263 |
| AGATCCTA | -0.104 |
| ACCCACGC | -0.061 |
| CACCTTGA | -0.135 |
| TTCGAGAA | 0.109 |

| Sequence | PBM E-score |
| --- | --- |
| CCACGTGG | 0.13 |
| AACACGGG | 0.12 |
| GGGTCATA | -0.127 |
| ACAAATCC | -0.0208 |
| CCGTAAGC | 0.161 |
| GTGGTCGA | 0.00299 |
| ATAGACTA | -0.0191 |
| CCCACTAC | -0.0157 |
| CATCTACA | -0.109 |
| AAGCAAGT | -0.192 |
| ATCCAAGC | -0.232 |
| GACTGGCC | 0.0218 |
| CCACGTGC | -0.0054 |
| GCATCAAA | -0.107 |
| AAGACTAC | -0.033 |
| TAACGGCA | 0.034 |
| AACCTGCG | -0.0137 |
| ACTCTTAA | 0.033 |
| ACTCATGC | -0.0732 |
| ACACTCAC | -0.0895 |
| CCGAGTCG | 0.0842 |
| AAGTGGTG | -0.0138 |
| CAGCCAAA | -0.0153 |
| CGCTTTCC | -0.089 |
| CGTTTAGC | 0.48 |

| Sequence | PBM E-score |
| --- | --- |
| AAATTGAG | -0.17 |
| ATTAGCGG | -0.156 |
| CATAAACA | -0.00956 |
| ACAGGTCT | 0.0427 |
| GTGGAAAC | -0.106 |
| GAGTACAC | 0.134 |
| CTAGGTTA | -0.111 |
| AATGCACA | 0.039 |
| AGCTAATA | 0.0852 |
| CATCGGAA | 0.0847 |
| AACCCTTG | -0.0385 |
| ATCAGGCG | -0.135 |
| ATAACCGC | -0.0475 |
| CTTTAGTC | -0.278 |
| ATGCCGCG | 0.178 |
| GAGGTAGA | -0.0305 |
| CGAATGCC | -0.0362 |
| CCTCATCG | 0.0474 |
| ATCGAGGG | -0.0211 |
| ACTACTGG | -0.349 |
| CTGTCAGC | -0.268 |
| CGCAACCC | -0.0865 |
| CTAGACTA | -0.0801 |
| CTTAAACA | 0.11 |
| CTAGGGGC | -0.369 |

| Sequence | PBM E-score |
| --- | --- |
| GCCAGTAC | 0.00188 |
| GACTGGAC | -0.215 |
| ATGACCAC | -0.197 |
| GATTCAAC | -0.0403 |
| GTGCGGAA | -0.0536 |
| GGACCATA | -0.0389 |
| AATTCCGC | 0.0411 |
| AAAAGCAT | 0.0838 |
| ACGCATTC | 0.0368 |
| CACAGATA | -0.136 |
| AGGGACAC | -0.0645 |
| GGGGCTTA | -0.215 |
| CAGTCTGC | -0.0954 |
| AAACACCG | 0.137 |
| ACGATAGC | 0.339 |
| AGCGACGC | 0.218 |
| ACTTTAGA | -0.117 |
| ACTTCACG | 0.0222 |
| GCGGCTCC | -0.169 |
| AGCACCCG | -0.0525 |
| CCGTGGCA | -0.0847 |
| CGCTTAGC | 0.287 |
| ACGAATAT | 0.252 |
| GACAGCGA | 0.0312 |
| GGATCACC | 0.00235 |

| Sequence | PBM E-score |
| --- | --- |
| CTTAATTC | 0.0228 |
| GGTTATTA | 0.0965 |
| ATCACCCA | -0.149 |
| GTACGACA | 0.468 |
| GGAATCCC | -0.186 |
| ACCTATTG | -0.0668 |
| CAACGTGC | -0.0738 |
| ATATAGCG | 0.0128 |
| CTCCGTCC | -0.304 |
| AGCACCAT | -0.0618 |
| AGCTCTAT | -0.126 |
| AGGTAAAC | 0.331 |
| CGTGCAAG | 0.13 |
| GAATCCAC | -0.0337 |
| CATATCCG | 0.0703 |
| CGCCTTAG | -0.169 |
| CTCCACTC | -0.208 |
| AACGCCCA | 0.0627 |
| CAGAAACC | -0.097 |
| CACAGGGA | -0.233 |
| CGTTCGGA | 0.265 |
| AGCTGTCA | -0.0571 |
| AACGGCTC | 0.216 |
| ACGCGTGA | 0.136 |
| ACTGTGGC | -0.123 |

| Sequence | PBM E-score |
| --- | --- |
| CGTGCGTC | 0.102 |
| CATTCACC | -0.0198 |
| CAAGGCTG | -0.22 |
| GGCAGTCA | -0.16 |
| AACGTACA | 0.266 |
| GGTAACTA | 0.0556 |
| CGGCCGGC | -0.0294 |
| CCTAAAAG | 0.0297 |
| CAGGAAAG | -0.216 |
| AACGGAGA | 0.205 |
| ATATCGCG | 0.239 |
| CCTAGCCC | -0.172 |
| AAAGATGT | 0.0298 |
| GAGGAGCC | -0.164 |
| CGTTGATC | 0.17 |
| CACAGGCA | -0.155 |
| CGCGTGAG | -0.0011 |
| AGCGAGCT | 0.225 |
| AGGTTCAC | 0.0568 |
| AAACTACT | 0.0197 |
| GACCGGTA | 0.00038 |
| CAATCTAA | 0.00274 |
